Measurements published in the supplement of paper PMC11417369.
Some of the results follow.

tested on: PfSIP2 AP2 domain 1 (GST-tagged); test: gcPBM binding intensity (ln(normalized median fluorescence intensity)); higher = stronger DNA binding
In short: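 In this array assay, P. falciparum DNA-binding domains with a GST tag, expressed in E. coli, were applied for 1 h to primer-extended double-stranded 36-bp intergenic genomic probes and negative controls on an Agilent 4 × 180k array. Bound protein was visualised with Alexa488 anti-GST antibody at 488 nm. Binding intensity is the highest Masliner-normalised natural-log median intensity across replicate spots of either probe orientation.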

Sequence	gcPBM binding intensity (ln)
TTTTTTTTTTCATTAACACACATAAATATATATATA [CACACA_site5759]	8.41
TGATTAATAATTTTCTTCATACATTAAACATCTTTT [TGCATGCA_negctrl_site342]	6.82
CACTAATAGTGGATTACACACATATATCTGTATTTA [CACACA_site5403]	6.94
TTAATGTTATATGTGTGTACATATAAGTTTAGTAAA [XGTACX_site4651]	7.09
GACATAAAATTCAAAGTGCATAAATAAAATAAACCC	8.81
TTTTTTTTTTTTTTCTGTACAAATTAAATCTACATA [XGTACX_site8285]	6.96
ATATTTAAAAAATGATGTACAAAAATGTAGTCACAC [XGTACX_site6208]	7.24
GAAATTAAATGACATACACACTATATTATAGATTTT [CACACA_site7468]	6.73
TATTTTAATGAATTCACACATATAATTTATTTTATA [CACACA_site4538]	6.84
ATAGTATCTGGTAGCTGTACGAGTCGTAGAGTGTAA [XGTACX_site4936]	7.16
ATATAAAACTAATTTCTTTTTCTCCTTTTATTTTGT [CACACA_negctrl_site1251]	6.99
AATATATATTAATAAAGTACAGGAAATATTTTTACC [XGTACX_site7052]	7.33
AAAATACATAGACACACACACACACGGATATAAATA [CACACA_site7643]	7.03
ATATATATATATAAATGTACAGATATATTTTTTATT [XGTACX_site5445]	9.42
TTTAATTTGATAGACACATGCACACGTGCAATACTT [TGCATGCA_site777]	9.11
TACTAAAAAATATAAACACACATATATTTTACATAT [CACACA_site2042]	6.98
TTTGTAAGAAATAAATGTACAAAAATTAATTTTTAT [XGTACX_site8983]	6.84
ATATTAAAATTAAACGCATGCATATATTATAAAAGA [TGCATGCA_site231]	6.89
CTAATTAATGGGTACATACACACATATATACATACA [CACACA_site743]	7.16
TTCTGTATAACACAAATTTTTTTTTATTCACTCTGT [TGCATGCA_negctrl_site410]	6.93
TTTTTATCAAATAAATGTACACATATTAAATGAAAT [XGTACX_site555]	7.11
AACACTTCATACACGTGTACAAATATAATATAGACA [XGTACX_site5671]	7.23
GGAAATAATATTATTACACACCAAAATGTATAAAAA [CACACA_site4036]	6.89
AAAATATTCACGTGTACATATATATATATATATTAT [TGCATGCA_negctrl_site192]	7.4
